# The source gives no read counts; variants with many changes may rest on few reads.
# B1: CPEB3 Ribozyme (parent)
# chain: UAACAGGGGGCCACAGCAGAAGCGUUCACGUCGCAGCCCCUGUCAGAUUCUGGUGAAUCUGCGAAUUCUGCUGUAUAUCUC
# Variants of: B1
# Assay: self-cleavage, relative activity (ratio to wild type); higher = more cleavage; in vitro, sequencing
# How it was run: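 CPEB3 self-cleaving ribozyme mutant libraries were made by rounds of error-prone PCR, barcoded, and transcribed in vitro with T7 RNA polymerase for 5 hours at 37°C. Cleavage occurred during transcription and a 15 min DNase I step before EDTA stop. RNAs were reverse transcribed with template switching and Illumina-sequenced, with DNA sequencing mapping barcodes to variants. Relative activity is the variant's cleaved/total read fraction divided by wild type's (minimum 5 reads), averaged across three batches.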
row,Variant,self-cleavage
1,A28U U60C C62U U69A,0.2
2,A28U U66A G73A,0.16
3,A28U U67A U72A U80C,0.34
4,A28U U67A U74C,0.57
5,A28U U72C U76A,1.13
6,A28U U74A U80C,1.23
7,A28U U78A U80C,0.8
8,C29A A35G U41A,0.2
9,C29A A35G U51A A57G U69C U74C,0.56
10,C29A A35U C38U,0.2
11,C29A A35U U41C,0.16
12,C29A A45G G52U U54C,0.23
13,C29A A45U U51C U54C U58C C68A,0.07
14,C29A A47G A57G U58C U76C U78C,0.19
15,C29A A47G U69A U72C U80C,0.12
16,C29A A56G U72C U74C,0.2
17,C29A C37U A64G,0.2
18,C29A G33A A35G U69C U74C,0.09
19,C29A G33A G36U A64G,0.17
20,C29A G33A U60A,0.13
21,C29A G53C U58G,0.1
22,C29A G63A A64G U69A U78A,0.1
23,C29A U41C G46A,0.15
24,C29A U43A G52C U54A G73C,0.93

row,Variant,self-cleavage
1,C29A U48C U51A U78A,0.19
2,C29A U49C U51A A77G U78C,0.16
3,C29A U51A A65G,0.26
4,C29A U51A A77G U78C,0.15
5,C29A U54A C62U U69C,0.12
6,C29A U54A G63A U69C,0.17
7,C29A U54C A57G A64G U69C U72A,0.05
8,C29A U60A U76A,0.27
9,C29A U66C U69C,0.16
10,C29A U69G U74A,0.26
11,C29A U69G U76A,0.26
12,C29A U72C A77U U80A,0.59
13,C29G A35G U72A U74C,0.12
14,C29G A45U U67C U69C,0.15
15,C29G A56U A64U U80C,0.2
16,C29G A56U U60A,0.14
17,C29G A57G U67C,0.15
18,C29G A57U G61A,0.13
19,C29G C37U G42U,0.12
20,C29G C38A U58C A64U,0.15
21,C29G C40G U69C U72A,0.12
22,C29G U31A C40U U41A A47G A75U,0.17
23,C29G U31A C40U U41G A47G U48C,0.21
24,C29G U31A U54A,0.3

row,Variant,self-cleavage
1,C29G U31C A64U A65U U80C,0.07
2,C29G U31G C40U U41A A47G U49A,0.09
3,C29G U41G A56G,0.48
4,C29G U51C A77G,0.07
5,C29G U54C A77U,0.1
6,C29G U60C U67C,0.08
7,C29G U69C U72A,0.05
8,C29U A35G A57G,0.47
9,C29U A35G A75G,1.23
10,C29U A35G U41C,1.01
11,C29U A35G U54A,1.2
12,C29U A35U A47G U78C,0.2
13,C29U A35U U51A A64U,0.24
14,C29U A35U U51C,0.4
15,C29U A35U U51C U78C,0.11
16,C29U A45G A57U U58C C62U,0.07
17,C29U A45G U72C,0.48
18,C29U A47G U58A,0.16
19,C29U A47U G61A U74A,0.24
20,C29U A56G A64G A77G,0.13
21,C29U A56U U60A U72G,0.1
22,C29U A57C U69C U72A,0.13
23,C29U A57G U58A,0.38
24,C29U A57G U60C,0.34

row,Variant,self-cleavage
1,C29U A64G U66C U80A,0.14
2,C29U A64G U78A,0.27
3,C29U A64G U80C,0.75
4,C29U A65G A75U,0.27
5,C29U C32A U49A U80C,0.19
6,C29U C38U U72G,0.41
7,C29U C44G G46U,0.14
8,C29U C50A A56G,0.25
9,C29U G33A U54C,0.16
10,C29U G33U C37G C38U A57G A75U,0.07
11,C29U G33U U43A,0.1
12,C29U G52A U54C A75G,0.33
13,C29U G61A A65G U78C,0.05
14,C29U U31A A35U A56G A75G,0.15
15,C29U U31A A64G,0.13
16,C29U U31A C40U U51C,0.18
17,C29U U31A U41C,0.29
18,C29U U31C U51A U80C,0.31
19,C29U U41A U66C U67A,0.13
20,C29U U41C A57G,0.41
21,C29U U41C A57U U58A,0.13
22,C29U U41C U43C U66C C71U C81A,0.11
23,C29U U41C U51C,0.4
24,C29U U41C U54C,0.53

row,Variant,self-cleavage
1,C29U U41C U72C,0.63
2,C29U U43A U54A G70A U78C,0.17
3,C29U U43C A56U U69A,0.17
4,C29U U43C U51A U66C U74C,0.11
5,C29U U48C A56U,0.05
6,C29U U48C U60A A75G,0.16
7,C29U U49A U51A U60C U72C U74A U76C,0.07
8,C29U U49A U54C U78C,0.13
9,C29U U49A U69C A75G A77G,0.11
10,C29U U49C U72C,0.26
11,C29U U49C U78C U80A,0.1
12,C29U U51A A65G,0.13
13,C29U U51A U69A U80C,0.2
14,C29U U51C G61U U72A,0.12
15,C29U U54A A65G,0.22
16,C29U U54A U72C U78C U80C,0.79
17,C29U U60C U67C,0.42
18,C29U U60C U72G,0.04
19,C29U U69G U80C,0.2
20,C29U U78C U80C,0.21
21,G30A A35G A45G U49C,0.07
22,G30A A35G A57G U58C A77G,0.1
23,G30A A35G U41C U58C U72C U76C,0.11
24,G30A A35G U48C A64G U69C,0.11

row,Variant,self-cleavage
1,G30A A35U U54C U58C C59G,0.09
2,G30A A45G A57G,0.19
3,G30A A45G U49A A56G U80C,0.09
4,G30A A45G U74A U80C,0.42
5,G30A A45U A47G,0.11
6,G30A A47U U72G A77G,0.1
7,G30A A57G C59A,0.18
8,G30A C32U U51C,0.12
9,G30A C34G U51G,0.17
10,G30A C34U A45C U49A U78C,0.14
11,G30A C40A G52C A65G,0.12
12,G30A C50U G73U,0.21
13,G30A C62A U67C U69C,0.07
14,G30A C68U U80C,0.15
15,G30A G46U A56U,0.13
16,G30A G52A A57U,0.54
17,G30A U41A U60A,0.21
18,G30A U41A U67C,0.4
19,G30A U41C A45U U54G A64G,0.06
20,G30A U41C A57G U72A U80C,0.05
21,G30A U41C C44U U54C U67C,0.1
22,G30A U41C U60C,0.21
23,G30A U41C U69G,0.13
24,G30A U41G A64G G73A U78C,0.29

row,Variant,self-cleavage
1,G30A U41G G53A A56G,0.11
2,G30A U43A G52U U76C,0.47
3,G30A U43C A45G U58A,0.16
4,G30A U43C A47G U48C A56U U69C,0.05
5,G30A U43C U78C U80C,0.16
6,G30A U48C U54C,0.11
7,G30A U49C U78A,0.1
8,G30A U60A A64G,0.2
9,G30A U60G U69A,0.07
10,G30A U69A U80C,0.22
11,G30A U69C U72G A77G,0.11
12,G30C A35G A45U U49C U58A,0.14
13,G30C C37U A45G U54C U80C,0.08
14,G30C C38U G73A,0.33
15,G30C C38U U41C,0.24
16,G30C C39A U74C U78C,0.07
17,G30C U31C A35U,0.13
18,G30C U31C U43A A56G,0.17
19,G30C U41A U43A U78C,0.06
20,G30C U48C A64G A65C,0.12
21,G30C U48C G63A U74C,0.14
22,G30C U49C U58C A65G U76A,0.11
23,G30C U51C U69A C71G U72A,0.07

# Source: the RNAGym collection of RNA variant scans (doi:10.1093/nar/gkz1192)
